Measured values as given in PMC4336329 (PLoS ONE, 2015).
In all, about 310,000 compounds went through this assay and about 2,200 (0.71%) showed an effect of 50% or more. Effects have a minus sign here. The list shows a part of the results.

The compounds below were run against human ether-à-go-go-related gene (hERG) potassium channel (human, UniProt Q12809) (assay: primary screen, population patch clamp on CHO cells stably expressing hERG).
Chain of human ether-à-go-go-related gene (hERG) potassium channel (Q12809 whole entry, looked up): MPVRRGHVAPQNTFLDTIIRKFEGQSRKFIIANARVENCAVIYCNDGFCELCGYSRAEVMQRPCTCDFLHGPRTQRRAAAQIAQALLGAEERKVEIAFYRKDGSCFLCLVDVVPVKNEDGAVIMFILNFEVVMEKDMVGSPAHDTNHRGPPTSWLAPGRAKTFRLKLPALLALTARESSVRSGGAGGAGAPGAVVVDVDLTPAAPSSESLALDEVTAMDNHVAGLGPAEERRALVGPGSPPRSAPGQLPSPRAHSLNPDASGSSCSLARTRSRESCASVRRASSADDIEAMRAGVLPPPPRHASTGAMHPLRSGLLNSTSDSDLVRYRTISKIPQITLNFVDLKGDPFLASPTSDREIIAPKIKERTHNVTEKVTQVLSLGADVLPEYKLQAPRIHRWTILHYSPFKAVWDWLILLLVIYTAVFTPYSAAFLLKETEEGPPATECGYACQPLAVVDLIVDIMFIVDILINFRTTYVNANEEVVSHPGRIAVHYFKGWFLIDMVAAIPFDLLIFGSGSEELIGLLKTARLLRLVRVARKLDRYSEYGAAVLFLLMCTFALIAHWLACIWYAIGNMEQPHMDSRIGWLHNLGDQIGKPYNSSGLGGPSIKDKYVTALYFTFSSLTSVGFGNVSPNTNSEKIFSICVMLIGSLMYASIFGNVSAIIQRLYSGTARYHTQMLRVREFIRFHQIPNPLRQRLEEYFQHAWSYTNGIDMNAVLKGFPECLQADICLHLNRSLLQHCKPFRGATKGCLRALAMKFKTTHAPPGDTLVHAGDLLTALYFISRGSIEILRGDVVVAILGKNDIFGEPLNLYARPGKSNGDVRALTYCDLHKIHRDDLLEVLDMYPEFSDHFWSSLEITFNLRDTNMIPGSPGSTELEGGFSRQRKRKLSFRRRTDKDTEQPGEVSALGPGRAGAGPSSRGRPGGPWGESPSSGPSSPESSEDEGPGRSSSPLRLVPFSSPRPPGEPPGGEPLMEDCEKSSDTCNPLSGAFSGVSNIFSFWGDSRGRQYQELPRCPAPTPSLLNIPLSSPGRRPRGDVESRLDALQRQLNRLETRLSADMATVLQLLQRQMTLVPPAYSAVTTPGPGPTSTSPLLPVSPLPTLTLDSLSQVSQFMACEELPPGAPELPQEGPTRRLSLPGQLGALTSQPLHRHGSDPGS

Row | Structure (SMILES) | hERG current change (%, negative = inhibition) at 1uM [%]
1 | CCCCNC(=O)c1cn(C)c2ccc(S(=O)(=O)N3CCCC3)cc2c1=O | 14.8
2 | O=C(CSc1nnc(C2CC2)n1-c1ccccc1)NCCc1ccccc1 | 9.1
3 | CCC1CCCCN1Cc1ccc(CNC(=O)CCc2nnc3ccc(N4CCCCC4)nn23)o1 (stereo not shown) | 15.6
4 | c1cnc2ccc(C(c3nnnn3C3CCCC3)N3CCSCC3)cc2c1 (stereo not shown) | 11.3
5 | COc1ccc(CCN2CCCC(CN(C)C(=O)c3ccoc3)C2)cc1 (stereo not shown) | -32.6
6 | Cc1cccc(C)c1NC(=O)CN1CCN(CC(=O)NCC2(N3CCCCC3)CCCCC2)CC1 | 2.79
7 | CC(C(=O)Nc1ccccc1F)N1CCN(C)CC1.O=C(O)C(=O)O (stereo not shown) | 12.8
8 | CN1/C(=C\C=N\NC(=O)c2ccc(O)cc2)C(C)(C)c2ccccc21 | -8.49
9 | C=CCn1c(SCC(=O)NC2CCCC2)nnc1-c1cccnc1 | 14.5
10 | O=C(Nc1cccc(-c2ccc(N3CCOCC3)nn2)c1)c1ccc([N+](=O)[O-])cc1 | -7.8
11 | COC(=O)Cc1[nH]n(-c2nc3ccccc3s2)c(=O)c1C(C)=Nc1ccc(C)cc1 | 13.2
12 | CC(C)Cn1c(N)c(C(=O)COC(=O)c2cnccn2)c(=O)n(C)c1=O | -4.07
13 | O=C(NCc1ccco1)c1ccc2c(c1)C(=O)N(C1CCCCC1)C2=O | -24.9
14 | O=C(Cn1ncc2c([nH]c3ccccc32)c1=O)N1CCCCC1 | 13.8
15 | CCOc1cc(C)c(Cl)cc1S(=O)(=O)n1cnc2ccccc21 | -7.1
16 | Cc1cc(C(=O)N/N=C/C=C/c2cccc([N+](=O)[O-])c2)n[nH]1 | 5.05
17 | CC(C)CCNC(=O)c1cccc(S(=O)(=O)N2CCc3ccccc32)c1 | 6.72
18 | CCOC(=O)C(NC(=O)c1ccc(OC)cc1)(N1CCCC1=O)C(F)(F)F (stereo not shown) | 12.5
19 | CCC(C(=O)Nc1ccsc1C(=O)OC)c1ccccc1 (stereo not shown) | 13
20 | CCOc1ccc2oc(C(=O)N(Cc3nnc(-c4ccccc4Cl)o3)C3CC3)c(C)c2c1 | -2.03
21 | COc1ccc(CCNCc2csc3nc4ccccc4n23)cc1OC.Cl | 9.39
22 | COc1ccc2c(O)c(-c3c(C)cc(C)cc3C)c(=O)[nH]c2c1 | 4.58

Row | Structure (SMILES) | hERG current change (%, negative = inhibition) at 1uM [%]
23 | O=C(NCC(=O)N(c1ccc(F)cc1)C(C(=O)NC1CCCC1)c1cccnc1)c1ccco1 (stereo not shown) | 11.3
24 | CCN(CC)S(=O)(=O)c1ccc(N2CCOCC2)c(NS(=O)(=O)c2ccc(OC)cc2)c1 | 5.01
25 | O=C(O)c1cncc(Br)c1 | 8.7
26 | Cc1ccc(NC(=O)C2CCN(S(=O)(=O)c3ccc4c(c3)NC(=O)C(C)S4)CC2)cc1C (stereo not shown) | 9.41
27 | CCCCc1nnc(NC(=O)COC)s1 | 16.3
28 | CC(C)CNC(=O)C1CCCN(C(=O)NCc2ccccc2)C1 (stereo not shown) | 0.705
29 | Cc1ccc(C(=O)Nc2cccnc2)cc1S(=O)(=O)N1CCCC1 | 11.5
30 | O=C(Nc1ccc2c(c1)OCO2)c1sc2cc(Cl)ccc2c1Cl | 9.08
31 | O=C(CSc1ccccn1)N1CCN(C(=O)CSc2ccccn2)CC1 | 4.15
32 | O=C(NCCC1CCCCN1S(=O)(=O)c1ccc(F)cc1)C(=O)NCCN1CCOCC1 (stereo not shown) | -14.4
33 | CCOc1ccc(/C(O)=C2/C(=O)C(=O)N(CCOCCO)C2c2cccnc2)cc1 (stereo not shown) | 23.2
34 | CC(=O)Nc1cccc(C(=O)OC(C)C(=O)Nc2ccc(S(=O)(=O)N3CCCC3)cc2)c1 (stereo not shown) | 17.4
35 | O=C(NNC(=O)c1ccc([N+](=O)[O-])cc1C(=O)O)c1ccncc1 | 7.54
36 | CN(C(=O)COC(=O)Cc1c(F)cccc1Cl)c1c(N)n(Cc2ccccc2)c(=O)[nH]c1=O | 12.1
37 | CCn1nc(C)cc1C(=O)Sc1cccc(Br)c1 | 11.4
38 | CCOc1ncccc1C(=O)NNC(=O)c1csc(N2CCOCC2)n1 | 21.1
39 | COCCNC(=O)c1snc2ccc(Cl)cc12 | 17.1
40 | Cc1cc(C(=O)CN2C(=O)C(=O)N(Cc3ccco3)C2=O)c(C)n1CCc1ccc(F)cc1 | 0.505
41 | Cc1ccsc1/C=C(\C(=O)c1ccc(OC(C)C)cc1)c1nc2ccccc2o1 | 14
42 | S=C(NCCc1cnc[nH]1)NC1CCCC1 | 27.4
43 | COc1ccc(-n2ncc3c(=O)n(CC(=O)Nc4ccc(S(=O)(=O)N5CCOCC5)cc4)cnc32)cc1 | 5.95
44 | CN1C(=O)C(=O)N(CC(=O)N2CCc3ccccc32)C1=O | 11.2

Row | Structure (SMILES) | hERG current change (%, negative = inhibition) at 1uM [%]
45 | Clc1ccc(-c2ccc(SCc3ccccn3)nn2)cc1 | 10.8
46 | O=C(NCCC1=CCCCC1)C1CCCN(S(=O)(=O)c2cccc3cccnc23)C1 (stereo not shown) | -6.25
47 | Cc1ccc(C(=O)O/N=C/c2c(C)nn(C)c2Cl)cc1 | 6.18
48 | CC(=O)COc1ccc2c(c1C)O/C(=C\c1ccco1)C2=O | 13.4
49 | CCOC(=O)CN1C(=O)C(O)(CC(=O)c2ccccn2)c2ccccc21 (stereo not shown) | 7.77
50 | CCn1cc(Cl)c(C(=O)Nc2ccc(OC)c(OC)c2)n1 | 11.4
51 | CN1CCN(C=NC2=NN(c3cccc(C(F)(F)F)c3)CC2)CC1 | 0.21
52 | COC(=O)c1ccc(/C=N/NC(=O)CC(=O)NC2CCCCC2)cc1 | 22
53 | N/C(=N\OC(=O)CSc1ccccc1)c1ccncc1 | -1.19
54 | Cc1ccc(S(=O)(=O)N(CC(=O)NCc2ccccc2Cl)C(=O)N2CCN(C)CC2)cc1 | -7.39
55 | COc1cccc(Cn2cnc3c(sc4nc(C)cc(C)c43)c2=O)c1 | 11.3
56 | COc1ccccc1-c1cc(-c2ccc(C)cc2)nc(SCc2nnc(-c3ccccc3)o2)c1C#N | 15.9
57 | COc1ccc(CN2CC(C(=O)NCCC(C)C)CC2=O)cc1 (stereo not shown) | 15.3
58 | CCN(Cc1cccs1)C(=O)c1cccc(S(=O)(=O)N2CCN(C)CC2)c1 | -1.76
59 | CC1CCc2[nH]c3ccc(C(=O)N(C)CC(=O)Nc4ccccc4Br)cc3c2C1 (stereo not shown) | 12.6
60 | COc1ccc(-c2nc3n(n2)C(c2ccncc2)C(C(N)=O)=C(C)N3)cc1 (stereo not shown) | 9.3
61 | COc1ccccc1/C=C1\SC(=S)N(CCC(=O)NCCCn2ccnc2)C1=O | 2.94
62 | COc1ccc(CCNC(=O)COc2ccc(-c3ccc(C)cc3)cc2)cc1OC | -3.64
63 | O=C(O)c1cccc(-c2ccc(/C=c3/sc4nc5ccccc5n4c3=O)o2)c1 | 14.2
64 | COc1ccc(Nc2nc(C(=O)NCc3ccco3)cs2)cc1 | 4.7
65 | CC(=O)Nc1ccc(S(=O)(=O)Nc2nc3ccccc3nc2Nc2cccc(O)c2)cc1 | 11
66 | O=[N+]([O-])c1ccc(O)c(C=Nc2cccc3ncccc23)c1 | 12.3

Row | Structure (SMILES) | hERG current change (%, negative = inhibition) at 1uM [%]
67 | O=C(NN=C1CCCCCCC1)c1ccc(F)cc1 | 9.56
68 | O=C(COC(=O)c1cnccn1)Nc1ccc(Cl)cc1 | 8.01
69 | Cc1ccc2nc(Cl)c(/C=N/NC(=O)c3ccccc3O)cc2c1 | 10.4
70 | CCOc1ccc(N/C(SC)=C(/C#N)C(N)=O)cc1 | 9.27
71 | O=C(NCCC1=CCCCC1)c1cc(COc2ccc(F)cc2Cl)on1 | 12
72 | CC(C)NC(=O)[C@]1(C)CCC[C@@]2(C)C3CC[C@@]4(C)C[C@]3(CCC21)CC4=O (stereo partly shown) | 11.8
73 | CCN(C(=O)Cn1c(=O)n2nc(CCn3nc(C)cc3C)nc2c2ccccc21)c1cccc(C)c1 | -2.44
74 | CCCn1c(SCC(=O)Nc2ccc(C)c(S(=O)(=O)N3CCOCC3)c2)n[nH]c1=O | 11.3
75 | CC(=O)Nc1ccc(OCC(=O)c2ccc(C)cc2C)cc1 | 4.25
76 | Cc1cc(C)n(CC(O)CN2c3ccccc3Sc3ccccc32)n1 (stereo not shown) | 15.5
77 | O=C(Nc1cc(N2CCOCC2)ncn1)NC1(C(F)(F)F)Oc2ccc(Cl)cc2O1 (stereo not shown) | 6.46
78 | CCn1c(SCC(=O)c2c(N)n(C3CC3)c(=O)[nH]c2=O)nnc1-c1ccccc1OC | 10.7
79 | Cc1sc2ncnc(SCC(=O)NNC(=O)c3ccco3)c2c1C | -0.404
80 | O=c1cc(-c2ccc3c(c2)OCO3)oc2ccccc12 | 3.12
81 | CCCCCCCCCNC(=O)[C@H](NC(=O)COc1ccccc1)[C@@H]1NC(C(=O)OC)C(C)(C)S1 (stereo partly shown) | 20.4
82 | COc1ccc(CNC(=O)C(c2ccncc2)N(C(=O)Cc2cccs2)c2ccccc2C)cc1 (stereo not shown) | 0.574
83 | COC(=O)c1cn(C)c2ccc(S(=O)(=O)N3CCCC3)cc2c1=O | 1.28
84 | O=C(NCCc1ccc(Cl)cc1)C(=O)Nc1cc2c3c(c1)CC(=O)N3CCC2 | 9.31
85 | CN(C)C(=O)CSc1nc2ccc(N3C(=O)c4ccccc4C3=O)cc2s1 | 10.8
